For 56 sequences, thermal melting temperature results are on record in the supplement of paper PMC7726561.

First the molecules themselves.
B1: unnamed (peptide)
chain: FIDKHIAEL
B2: unnamed (peptide)
chain: LLQEVEHQL
B3: unnamed (peptide)
chain: MLFGHPLLV
B4: unnamed (peptide)
chain: ALDHMVEYV
B5: unnamed (peptide)
chain: RLSEFIPAVF
B6: unnamed (peptide)
chain: YLKDGPYITA
B7: unnamed (peptide)
chain: TLDITPHTV
B8: unnamed (peptide)
chain: VLLEQPTWQL
B9: unnamed (peptide)
chain: TLAEIAKAEL
B10: unnamed (peptide)
chain: GLDPSGARLV
B11: unnamed (peptide)
chain: TLITDGMRSV
B12: unnamed (peptide)
chain: SLIGHLQTL
B13: unnamed (peptide)
chain: VLADALKSI
B14: unnamed (peptide)
chain: SLAQYLINA
B15: unnamed (peptide)
chain: SLADDSVLERL
B16: unnamed (peptide)
chain: YQYPVIIHL
B17: unnamed (peptide)
chain: HLAFQIYEA
B18: unnamed (peptide)
chain: FLDESRSTQYM
B19: unnamed (peptide)
chain: GLDPQGDRSFL
B20: unnamed (peptide)
chain: RLWNETVEL
B21: unnamed (peptide)
chain: LMVDHVTEV
B22: unnamed (peptide)
chain: HLAIKLEQV
B23: unnamed (peptide)
chain: QLTNVILHL
B24: unnamed (peptide)
chain: RIIDTVAQV
B25: unnamed (peptide)
chain: FLDDVVHSL
B26: unnamed (peptide)
chain: VLYPHEPTAV
B27: unnamed (peptide)
chain: FVMETFVHL
B28: unnamed (peptide)
chain: SVMGNIIHV
B29: unnamed (peptide)
chain: TVIAKVNNV
B30: unnamed (peptide)
chain: YVFENTVATV
B31: unnamed (peptide)
chain: ILTESEIKL
B32: unnamed (peptide)
chain: HLIDDLLAA
B33: unnamed (peptide)
chain: KLLDIPGLEV
B34: unnamed (peptide)
chain: SLSTAAGAAEL
B35: unnamed (peptide)
chain: SLIDDNNEINL
B36: unnamed (peptide)
chain: KLVEFDFLGA
B37: unnamed (peptide)
chain: FILDFYEKV
B38: unnamed (peptide)
chain: KLFEDELTL
B39: unnamed (peptide)
chain: LMGPVVHEV
B40: unnamed (peptide)
chain: YIYDKDMEII
B41: unnamed (peptide)
chain: LQVEEVHQL
B42: unnamed (peptide)
chain: FLLPKVQSI
B43: unnamed (peptide)
chain: ILYSKTEHL
B44: unnamed (peptide)
chain: NLMKSAFVV
B45: unnamed (peptide)
chain: ILYPKTLFL
B46: unnamed (peptide)
chain: SLADLQNDEV
B47: unnamed (peptide)
chain: LLDGNPFRV
B48: unnamed (peptide)
chain: NLHEGDIIL
B49: unnamed (peptide)
chain: RVFSDIIYTV
B50: unnamed (peptide)
chain: YLTNEGIQYL
B51: unnamed (peptide)
chain: SVDSKPPVI
B52: unnamed (peptide)
chain: KLLEPVLLL
B53: unnamed (peptide)
chain: ILGGPGTVQGV
B54: unnamed (peptide)
chain: SLLEVNEESTV
B55: unnamed (peptide)
chain: NLLKLIAEV
B56: unnamed (peptide)
chain: ALLSGLREA

Whole data set: some 1,100 sequences, median “thermal melting temperature (Tm) of peptide-HLA complex” near 58, cut for the lowest 2% near 42. The list shows a part of the results.
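Note: cell lysates heated 10 min at 37–73 °C, remaining pHLA pulled down with pan-class I antibody, peptides quantified by DIA-MS versus 37 °C, Tm where half the complex is lost.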

For this test, the target named is HLA-A*02:01. The test can be described thus: thermal melting temperature (Tm) of peptide-HLA complex; higher = more thermostable pHLA complex. To be noted: C1R-A*02:01.
As to B1, the thermal melting temperature is 59.4 °C. B2: the thermal melting temperature is 57.8 °C. Sequence B3 registered a thermal melting temperature of 57.9 °C. Next, B4: 53.2 °C. Under B5 stands 63.7 °C.

Sequence B6 registered a thermal melting temperature of 60.3 °C. Next, B7: 56.7 °C; B8: 54.3 °C; B9: 53.1 °C. B10 yielded a thermal melting temperature of 56.1 °C. In turn, B11 showed a thermal melting temperature of 54.3 °C. Under B12 stands 58.3 °C. B13: the thermal melting temperature was 58.9 °C. For the sequence B14, the thermal melting temperature is 56.7 °C.

Consider B15, for which the thermal melting temperature came out at 57 °C. Sequence B16 displayed a thermal melting temperature of 58.5 °C. Under B17 stands 55.4 °C. As to B18, the thermal melting temperature is 60.7 °C. In the case of B19, the thermal melting temperature was 57 °C.

Take B20: the thermal melting temperature was found to be 63.7 °C. In turn, B21 displayed a thermal melting temperature of 58.7 °C.

In turn, B22 showed a thermal melting temperature of 59.5 °C. Regarding B23, the thermal melting temperature came out at 58.7 °C. Next, B24: 60.6 °C; B25: 58.8 °C; B26: 61.6 °C. Next, B27: 57 °C. Under B28 stands 47.5 °C; under B29, 45.4 °C. Consider B30, for which the thermal melting temperature turned out to be 59.8 °C.

Sequence B31 came in with a thermal melting temperature of 55.2 °C.

Consider B32, for which the thermal melting temperature worked out at 41.1 °C.

Turning to B33, the thermal melting temperature is 61.3 °C.

The sequence B34 returned a thermal melting temperature of 60.9 °C. Under B35 stands 47.2 °C. Next, B36: 59.7 °C; B37: 41.8 °C; B38: 56.1 °C. Next, B39: 46.4 °C. As to B40, the thermal melting temperature turned out to be 57.2 °C.

B41 displayed a thermal melting temperature of 53.2 °C. Take B42: the thermal melting temperature was determined as 63 °C. B43 had a thermal melting temperature of 50.9 °C. Take B44: the thermal melting temperature stood at 51.4 °C. In the case of B45, the thermal melting temperature was found to be 61.8 °C. Next, B46: 61.6 °C; B47: 56.6 °C; B48: 48.3 °C.

Sequence B49 displayed a thermal melting temperature of 54.8 °C. Next, B50: 63 °C; B51: 48.3 °C. Sequence B52 returned a thermal melting temperature of 59.4 °C. Under B53 stands 57.5 °C. Sequence B54 registered a thermal melting temperature of 59.6 °C. B55 returned a thermal melting temperature of 59.7 °C. On to B56, for which the thermal melting temperature came out at 62.6 °C.
